# Assay results reported in PubChem BioAssay AID624296 (National Center for Advancing Translational Sciences (NCATS), 2012).
# Screen size: about 350,000 compounds; about 9,900 (2.8%) were called active. This list was built around the results that the source calls inconclusive (neither active nor inactive); the mix of calls is not that of the screen. Calls come from the whole dose curve; as a rule, active = well fitted activation curve with a large enough effect; inconclusive = small, poorly fitted or top-dose-only effect; inactive = no such curve, though single readings can be large or run the other way. Potencies of inconclusive entries are left out as doubtful fits.
# Assay: A quantitative high throughput screen for small molecules that induce DNA re-replication in MCF 10a normal breast cells. Note: nearly all actives have a fitted effect of over 50% in size.
# Details: MCF 10A DNA re-replication, Hoechst nuclear intensity, 48 h; series mostly up to 46.1 µM
# Potency is the fitted concentration of half-maximal effect; tags give direction and shape of the fitted curve.
row,Compound,Potency
1,Cc1cc(N)nc(C)c1C#N,"inconclusive [activator, full curve, poor fit]"
2,O=C(Nc1ccc(S(=O)(=O)N2CCOCC2)cc1)c1cc(S(=O)(=O)N2CCOCC2)ccc1Cl,"inconclusive [activator, partial curve, poor fit]"
3,O=C(NC1CC1)C1=C[C@@H](c2csc3ccccc23)C[C@@H](OCCCCO)O1,inactive
4,COc1cccc(CN(C)Cc2c(O)ccc3ccccc23)c1,"inconclusive [activator, single point]"
5,COc1ccc(C(=O)NC(=S)Nc2ccc(CN3CCOCC3)cc2)cc1,inactive
6,CC(C)(C)C1CCC(=NNC(=O)CN(c2ccccc2)S(C)(=O)=O)CC1 (stereo not drawn),inactive
7,O=C1CCCC(=O)C1CS(=O)(=O)c1ccccc1,inactive
8,CCN1CCCC1CN(Cc1cc2ccc(C)cc2[nH]c1=O)C(=S)Nc1ccccc1OC (stereo not drawn),"inconclusive [activator, single point]"
9,O=C(C/C(=N\NC(=O)c1ccccc1Br)C(F)(F)F)c1cccs1,active: 11.6 µM
10,Cc1cc(C)c(-c2csc(NC(=O)C3=COCCO3)n2)cc1C,"inconclusive [activator, single point]"
11,Cn1c(=O)c([N+](=O)[O-])c(NCc2ccccc2)c2ccccc21,"inconclusive [activator, partial curve, poor fit]"
12,Cc1sc2nc(CSc3ncn[nH]3)[nH]c(=O)c2c1C,inactive
13,CCC1CCCCN1C(=S)NC(=O)c1cccs1 (stereo not drawn),"inconclusive [activator, single point]"
14,COC(=O)c1ccccc1NC(=O)Nc1ncccc1C,inactive
15,Cc1c(OCC(=O)NCCCn2ccnc2)ccc2c3c(c(=O)oc12)CCC3,inactive
16,CCOc1cccc(NC(=O)c2ccc(S(=O)(=O)N(C)C)cc2)c1,inactive
17,C=CCn1c(N)c(C(=O)NCCC2=CCCCC2)sc1=S,"inconclusive [activator, single point]"
18,O=C(CSc1nnc(-c2ccc(Cl)cc2)n1Cc1ccco1)c1cccs1,"inconclusive [activator, partial curve, poor fit]"
19,N#C/C(=C\c1cccc(O)c1)C(=O)N1CCCCC1,active: 18.4 µM
20,COc1ccccc1Nc1nc(-c2c(C)nc3ncccn23)cs1,inactive
21,O=C1C=C(Nc2ccc(Cl)cc2)CC(c2ccccc2)C1 (stereo not drawn),active: 16.4 µM
22,Cc1cc(O)c2ccccc2c1O,"inconclusive [activator, single point]"
23,CCSC1=C(C#N)C2(CCCC2)C(C#N)=C(N)N1,"inconclusive [activator, single point]"
24,CN(C)S(=O)(=O)c1ccc(SCC(=O)N2CC(=O)Nc3ccccc32)nc1,inactive

row,Compound,Potency
1,Cn1c(Cc2csc(N)n2)nnc1SCC(=O)NCc1ccccc1,"inconclusive [activator, partial curve, poor fit]"
2,CC(=O)N1CCN(CC(=O)Nc2cc([N+](=O)[O-])ccc2Cl)CC1,inactive
3,O=C(Nc1ccc(Oc2ccc(C(F)(F)F)cn2)c(Cl)c1)C1CC1,"inconclusive [activator, single point]"
4,CC(C)(C)c1cc(C(=S)N2CCCC2)cc(C(C)(C)C)c1O,inactive
5,Cc1nc(SC(C)C(=O)NCC2CCCO2)c2cc(-c3ccccc3)sc2n1 (stereo not drawn),active: 11.6 µM
6,Cc1cccc(-c2cc(C(=O)Nc3cccnc3)c3ccccc3n2)c1,"inconclusive [activator, single point]"
7,CCOC(=O)Cn1c(=O)oc2cc(S(=O)(=O)N3CCN(C(=O)OCC)CC3)ccc21,inactive
8,CSc1ncccc1C(=O)OCc1ccccc1,"inconclusive [activator, partial curve, poor fit]"
9,C=CC[C@H](CC(=O)N(CCO)Cc1ccccc1)C(=O)N[C@H](COC(=O)[C@@H](CC=C)CC(=O)OC(C)(C)C)Cc1ccccc1,"inconclusive [activator, single point]"
10,Cc1cccc(NC(=S)NCCN2CCOCC2)c1,"inconclusive [activator, full curve, poor fit]"
11,CN1CCN(c2nc(-c3cccs3)cc(C(F)(F)F)n2)CC1,"inconclusive [activator, partial curve, poor fit]"
12,COc1ccc(S(=O)(=O)Nc2ccccc2OC)cc1C,"inconclusive [activator, single point]"
13,COc1cccc(/C=N/Nc2nc3ccccc3[nH]2)c1O,"inconclusive [activator, single point]"
14,CC(=O)Nc1ccc(C)cc1,inactive
15,O=C1N=C(N2CCC(Cc3ccccc3)CC2)S/C1=C/c1cn[nH]c1-c1ccccc1,"inconclusive [activator, full curve]"
16,CC(Cc1ccccc1)C(=O)NCc1ccccn1 (stereo not drawn),"inconclusive [activator, full curve, poor fit]"
17,CNC(=O)NC(=O)CSc1cccc(C(F)(F)F)c1,active: 20.6 µM
18,Cc1cc2ncn(CCC(=O)NC3CCCC3)c2cc1C,"inconclusive [activator, single point]"
19,COC(=O)N/N=C/c1ccc(-c2cc(Cl)ccc2Cl)o1,"inconclusive [activator, partial curve, poor fit]"
20,CCOc1ccccc1CNC(=O)C1CCN(c2nnc(C)c3c(C)n(-c4ccc(C)cc4)nc23)CC1,active: 23.1 µM
21,COc1cc(C)c(CNC2CCCCC2)cc1C,inactive
22,C=CCC(NCc1ccccc1)c1ccc(Cl)cc1 (stereo not drawn),"inconclusive [activator, single point]"
23,CC(=O)NCc1ccc(C(=O)CCl)s1,"inconclusive [activator, single point]"
24,Cc1cc(Br)ccc1NC(=O)CN1C(=O)C2C3CC(c4ccccc4)C(C3)C2C1=O (stereo not drawn),"inconclusive [activator, single point]"
